# According to the supplement of paper PMC11876631:
# Changes are numbered by the printed parent chain. Names may count otherwise. ± gives the standard deviation of the averaged measurements. Laboratory Escherichia coli strains with one amino-acid change in an essential protein, pooled on minimal glucose agar with carbenicillin or gentamicin at twice the control MIC (plus kanamycin and chloramphenicol for the plasmids), 48 h. Fold change of barcode share against drug-free plates; higher = less susceptible. Active = above 20 in both replicates (the paper's putatively resistant). '<' = one read or none on drug, '>' = one read or none on a drug-free plate. Shares are relative, so most strains fall below 1 when a few take over. Listed are strains with at least 15 reads on both drug-free plates, and hits; most hits rest on fewer reference reads. Replicate rank correlation about 0.5. Edits are read from barcodes.
# B1: tilS L29A (protein)
# chain: MTLTLNRQLLTSRQILVAFSGGLDSTVLAHQLVQWRTENPGVALRAIHVHHGLSANADAWVTHCENVCQQWQVPLVVERVQLAQEGLGIEAQARQARYQAFARTLLPGEVLVTAQHLDDQCETFLLALKRGSGPAGLSAMAEVSEFAGTRLIRPLLARTRGELVQWARQYDLRWIEDESNQDDSYDRNFLRLRVVPLLQQRWPHFAEATARSAALCAEQESLLDELLADDLAHCQSPQGTLQIVPMLAMSDARRAAIIRRWLAGQNAPMPSRDALVRIWQEVALAREDASPCLRLGAFEIRRYQSQLWWIKSVTGQSENIVPWQTWLQPLELPAGLGSVQLNAGGDIRPPRADEAVSVRFKAPGLLHIVGRNGGRKLKKIWQELGVPPWLRDTTPLLFYGETLIAAAGVFVTQEGVAEGENGVSFVWQKTLS
# B2: tilS L29Q (protein)
# chain: B1 chain with A29Q
# B3: tilS L111Q (protein)
# chain: B1 chain with A29L, L111Q
# B4: tilS V27A (protein)
# chain: B1 chain with V27A, A29L
# B5: tilS V27Q (protein)
# chain: B1 chain with V27Q, A29L
# B6: tilS I152A (protein)
# chain: B1 chain with A29L, I152A
# B7: tilS I152W (protein)
# chain: B1 chain with A29L, I152W
# B8: tilS I152Q (protein)
# chain: B1 chain with A29L, I152Q
# B9: tilS I152D (protein)
# chain: B1 chain with A29L, I152D
# B10: tilS I152P (protein)
# chain: B1 chain with A29L, I152P
# B11: tmk I200A (protein)
# chain: MRSKYIVIEGLEGAGKTTARNVVVETLEQLGIRDMVFTREPGGTQLAEKLRSLVLDIKSVGDEVITDKAEVLMFYAARVQLVETVIKPALANGTWVIGDRHDLSTQAYQGGGRGIDQHMLATLRDAVLGDFRPDLTLYLDVTPEVGLKRARARGELDRIEQESFDFFNRTRARYLELAAQDKSIHTIDATQPLEAVMDAARTTVTHWVKELDA
# B12: tmk V204A (protein)
# chain: B11 chain with A200I, V204A
# Biological target: Escherichia coli (laboratory strain)
# Experiment: barcode share on antibiotic plates over drug-free plates; higher = less susceptible
# Description: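 A pool of E. coli strains, each edited to carry one amino-acid change in an essential protein, was grown for 48 h on minimal glucose agar with or without antibiotic; strain barcodes were sequenced; mean of two replicates.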
# [1] = antibiotic: carbenicillin, 2× MIC (3.1 µg/mL)
# [2] = antibiotic: gentamicin, 2× MIC (MIC 0.45 µg/mL)
Protein,fold change of barcode share [1],fold change of barcode share [2]
B1,0.35 ± 0.12,< 0.00451
B2,0.447 ± 0.14,0.0102 ± 0.0054
B3,0.225 ± 0.093,0.0514 ± 0.052
B4,0.214 ± 0.037,< 0.011
B5,0.3591 ± 0.0011,< 0.0159
B6,0.303 ± 0.065,0.0116 ± 0.014
B7,0.248 ± 0.033,0.00249 ± 0.0016
B8,0.361 ± 0.11,0.00578 ± 0.0021
B9,0.316 ± 0.096,0.0053 ± 0.0015
B10,0.269 ± 0.0037,0.00178 ± 0.0014
B11,0.126 ± 0.073,< 0.00743
B12,0.211 ± 0.13,< 0.0121
